Experimental data as given in patent US20100196361A1, “Method of inhibition of vascular development using an antibody” (DYAX CORP., priority 2003, published 2010).

Key:
[1] = ELISA of antibody serum levels in tumor-bearing mice; type: in vivo, mouse; conditions: ocular bleeds after three every other day dosings and terminal bleeds, average
Text: Analyses included gamma counting of all samples. […] DX-2240, due to its interaction with Tie1 on the surface of endothelial cells, may accumulate in areas of high vascularization such as the lung. Therefore, multiple administrations of DX-2240 may be required to achieve an effective steady-state level of this antibody in the serum of mice. ELISA on ocular bleeds following three every other day dosings, as well as terminal bleed samples from tumor-bearing mice treated with DX-2220, were performed.

[2] = tested on: Colo205 (human colorectal cancer); assay: Colo205 xenograft in mice; conditions: mouse, in vivo
Experimental: In addition to the in vivo studies presented above, four additional mouse xenografts studies were performed. These studies were conducted either according to the protocols used in the SW-480 or LNM35 study.

[3] = tested on: CD45+ CD34+ blood progenitor cells; assay: FACS analysis on blood progenitor cells; type: binding; conditions: G-CSF mobilized peripheral blood cells and bone marrow cells; biotinylated antibody
Experimental: To evaluate the binding characteristics to blood progenitor cells (stem cells), FACS analysis with the anti-Tie1 antibody (or the appropriate negative control antibody) on G-CSF mobilized peripheral blood cells and with bone marrow cells was performed. Briefly, cells were blocked with 10% heat-inactivated human AB serum/2% mouse serum. Binding was initiated with biotinylated DX-2220 or biotinylated A2 negative control antibody. After washing the cells, primary antibodies were detected using FITC-labeled streptavidin. Following an additional 30 minute incubation period, remaining erythrocytes were lysed, and the resulting cell pellet after centrifugation was resuspended in PBS prior to FACS analysis. Data acquisition was performed on a FACSCanto™ (Becton-Dickinson) using FacsDiva™ software. Active gating on SSC/CD45 was used. Progenitor cells were gated on CD45^+ CD34^+ cells and were acquired automatically with at least 100,000 CD45^+ CD34^+ counted.

[4] = tested on: human myeloid and erythroid progenitors and megakaryocyte progenitors; assay: In vitro colony assays of hematopoietic progenitors; type: cell-based; conditions: methylcellulose- and collagen-based assays; concentrations up to 100 μg/ml
Experimental: The effect of anti-Tie1 antibodies (DX-2220 and DX-2240) on human myeloid and erythroid progenitors was evaluated using methylcellulose-based in vitro colony assays and megakaryocyte progenitors using collagen-based in vitro assays.

Tie1 = biological target: T1, Tie1 (Homo sapiens, UniProt P35590); assay: Immunohistochemical analysis of normal human tissues; type: binding; parameters: an expression vector containing a V5-tagged full length Tie1 cDNA; expressed in transfected cells; host or cells: COS1; conditions: biotinylated antibody 20 μg/ml
T1 sequence (P35590 22-1138): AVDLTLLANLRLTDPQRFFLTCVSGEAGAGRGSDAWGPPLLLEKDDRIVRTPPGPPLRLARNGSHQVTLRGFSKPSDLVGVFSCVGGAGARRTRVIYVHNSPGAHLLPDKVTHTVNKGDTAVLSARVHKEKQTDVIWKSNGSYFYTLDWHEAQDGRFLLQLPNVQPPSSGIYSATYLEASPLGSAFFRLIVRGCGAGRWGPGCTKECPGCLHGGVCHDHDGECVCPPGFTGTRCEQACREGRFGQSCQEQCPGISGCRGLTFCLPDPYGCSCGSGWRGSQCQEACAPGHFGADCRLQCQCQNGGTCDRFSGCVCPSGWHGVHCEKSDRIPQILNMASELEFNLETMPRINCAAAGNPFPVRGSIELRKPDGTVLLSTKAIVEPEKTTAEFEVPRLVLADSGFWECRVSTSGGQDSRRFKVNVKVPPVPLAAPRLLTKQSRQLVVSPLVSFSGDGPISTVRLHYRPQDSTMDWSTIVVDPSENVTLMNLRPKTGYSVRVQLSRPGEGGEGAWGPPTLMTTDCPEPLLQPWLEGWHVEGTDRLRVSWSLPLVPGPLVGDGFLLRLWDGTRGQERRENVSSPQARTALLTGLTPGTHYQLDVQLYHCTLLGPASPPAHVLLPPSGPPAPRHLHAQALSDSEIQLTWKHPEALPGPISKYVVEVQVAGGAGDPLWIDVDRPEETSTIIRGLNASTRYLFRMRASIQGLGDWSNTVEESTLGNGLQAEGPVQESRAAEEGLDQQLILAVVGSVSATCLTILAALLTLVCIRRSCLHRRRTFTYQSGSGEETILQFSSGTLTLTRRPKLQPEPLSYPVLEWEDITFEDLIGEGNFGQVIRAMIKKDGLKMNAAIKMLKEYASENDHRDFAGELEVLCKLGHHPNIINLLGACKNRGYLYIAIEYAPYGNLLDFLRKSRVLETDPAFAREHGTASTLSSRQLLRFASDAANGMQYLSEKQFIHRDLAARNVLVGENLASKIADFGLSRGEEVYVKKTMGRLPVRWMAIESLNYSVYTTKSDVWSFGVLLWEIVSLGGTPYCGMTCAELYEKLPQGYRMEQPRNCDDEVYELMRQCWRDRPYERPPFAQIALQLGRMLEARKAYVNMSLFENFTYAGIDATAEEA
Experimental: A series of immunohistochemical analyses on a series of non-malignant normal human tissues to assess potential areas of immunoreactivity of the E3 anti-Tie1 antibody was performed. Antibody titration experiments were conducted on both cryostat and paraformaldehyde fixed sections of select normal human tissues with biotinylated DX-2220 and an IgG isotype control antibody to determine the preferred tissue preservation conditions as well as optimal concentration of the antibody that would result in minimal background and maximal detection of signal. A concentration of 20 μg/ml for the primary antibody was selected for the study with biotinylated DX-2220 and the biotinylated IgG isotype control antibody used as the primary antibodies, and the principal detection system consisting of Streptavidin HRP with DAB as the chromagen. Tissues also were stained with the positive control antibodies (anti-CD31 and anti-vimentin) to ensure that the tissue antigens were preserved and accessible for immunohistochemical analysis. Only tissues that were positive for CD31 and vimentin staining were selected for the remainder of the study. The negative control consisted of performing the entire immunohistochemical procedure on adjacent sections in the absence of primary antibody. Slides were imaged with a DVC 1310C digital camera coupled to a Nikon microscope.

B1: DX-2220: full length, IgG1, germlined human anti-Tie1 antibody E3b; LC SEQ ID NO:700, HC SEQ ID NO:701 (antibody)
heavy: EVQLLESGGGLVQPGGSLRLSCAASGFTFSMYGMVWVRQAPGKGLEWVSVISPSGGNTGYADSVKGRFTISRDNSKNTLYLQMNSLRAEDTAVYYCARAPRGYSYGYYYWGQGTLVTVSS[left out - human IgG1 constant region]
light: DIQMTQSPSSLSASVGDRVTITCRASQGIGHYLAWYQQKPGKVPKLLIYTASTLQSGVPSRFSGSGSGTDFTLTISSLQPEDVATYYCQQFNSYPHTFGQGTRLEIKRTVAAPSVFIFPPSDEQLKSGTASVVCLLNNFYPREAKVQWKVDNALQSGNSQESVTEQDSKDSTYSLSSTLTLSKADYEKHKVYACEVTHQGLSSPVTKSFNRGEC
modifications: Antibody
- levels in the serum [1]: 500 µg/mL
- effect on tumor progression [2]: no effect
- staining of CD45+ CD34+ blood progenitor cells [3]: neither the negative control IgG A02, nor the E3 anti-Tie1 antibody DX-2220, positively stained CD45^+ CD34^+ blood progenitor cells
- inhibition of colony formation [4]: Neither DX-2220 nor DX-2240 inhibited colony formation
- staining of HMEC positive control cell line (Tie1): moderate membrane staining within the HMEC cell line
- staining of colon cancer positive control samples (Tie1): staining of macrophages, some carcinoma cells, and endothelial cells
- staining of normal tissues after subtraction of IgG isotype control background (Tie1): the majority of tissues were negative
- staining within normal tissues (Tie1): faint to moderate staining of macrophages, microglia in the brain, squamous epithelium of the cervix, faint staining of skeletal muscle, islets of Langerhans, and placental endothelium
